Test results taken from the supplement of paper PMC7826260.
Some of the results follow. Each Rep nickase domain was tested in vitro on the same pool of single strands at 3 µM enzyme and 37 °C for 1 h; the strands have 90 letters, of which the middle is given. A value is the log2 ratio of uncut reads to the pool without enzyme; the lower, the more was cut; hits are not called. The scaling is to total reads, so uncut sequences can rise above 0 when many others are cut.

Tests used:
Test in all cases: uncleaved DNA left, log2 of reads against the no-enzyme library (log2 ratio); higher = less cleavage (more negative = more Rep cleavage of the k-mer); sequences stand for … in CTCGTCCG…ACCGGAGA
[1] = test system: T1, Rep nickase domain of Muscovy duck circovirus
T1 sequence (residues 1-111 of Rep, tag left off): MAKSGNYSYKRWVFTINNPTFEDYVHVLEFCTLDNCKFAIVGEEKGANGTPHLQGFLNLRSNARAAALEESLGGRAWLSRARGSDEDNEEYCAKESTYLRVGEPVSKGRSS
Protocol: (§1)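 A pool of 90-nt single-stranded DNAs with seven random bases just before the constant AC of the nick site (name = the seven bases) was cut by 3 µM recombinant His6-SUMO-tagged Rep nickase domain (300 nM DNA, 50 mM HEPES pH 8.0, 50 mM NaCl, 1 mM MnCl2, 1 h, 37 °C, three replicates). Uncut DNA was amplified and sequenced.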

[2] = test system: T2, Rep nickase domain of banana bunchy top virus
T2 sequence (residues 1-94 of Rep, tag left off): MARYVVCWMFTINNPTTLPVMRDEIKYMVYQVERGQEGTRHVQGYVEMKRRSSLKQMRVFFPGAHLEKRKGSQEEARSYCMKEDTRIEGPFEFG
Protocol: as §1

[3] = test system: T3, Rep nickase domain of cabbage leaf curl virus
T3 sequence (residues 1-116 of Rep, tag left off): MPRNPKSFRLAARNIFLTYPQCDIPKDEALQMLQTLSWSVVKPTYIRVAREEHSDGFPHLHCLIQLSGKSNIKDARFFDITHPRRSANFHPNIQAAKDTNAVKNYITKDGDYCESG
Protocol: as §1

[4] = test system: T4, Rep nickase domain of chickpea chlorotic dwarf virus
T4 sequence (residues 1-124 of Rep, tag left off): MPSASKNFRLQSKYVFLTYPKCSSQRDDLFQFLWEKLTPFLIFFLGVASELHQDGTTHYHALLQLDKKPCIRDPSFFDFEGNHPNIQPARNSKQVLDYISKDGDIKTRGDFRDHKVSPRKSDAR
Protocol: as §1

[5] = test system: T5, Rep nickase domain of faba bean necrotic yellows virus
T5 sequence (residues 1-98 of Rep, tag left off): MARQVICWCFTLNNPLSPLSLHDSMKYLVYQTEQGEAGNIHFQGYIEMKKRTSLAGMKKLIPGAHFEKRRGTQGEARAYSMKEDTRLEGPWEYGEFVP
Protocol: as §1

[6] = test system: T6, Rep nickase domain of maize striate mosaic virus
T6 sequence (residues 1-117 of Rep, tag left off): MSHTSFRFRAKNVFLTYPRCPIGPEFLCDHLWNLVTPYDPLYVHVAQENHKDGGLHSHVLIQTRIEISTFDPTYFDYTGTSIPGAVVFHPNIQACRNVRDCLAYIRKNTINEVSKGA
Protocol: as §1

[7] = test system: T7, Rep nickase domain of porcine circovirus 2
T7 sequence (residues 2-116 of Rep, tag left off): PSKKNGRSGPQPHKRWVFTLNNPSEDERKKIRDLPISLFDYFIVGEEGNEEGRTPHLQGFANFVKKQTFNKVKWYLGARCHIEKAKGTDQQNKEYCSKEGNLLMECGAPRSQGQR
Protocol: as §1

[8] = test system: T8, Rep nickase domain of tomato golden mosaic virus
T8 sequence (residues 1-124 of Rep, tag left off): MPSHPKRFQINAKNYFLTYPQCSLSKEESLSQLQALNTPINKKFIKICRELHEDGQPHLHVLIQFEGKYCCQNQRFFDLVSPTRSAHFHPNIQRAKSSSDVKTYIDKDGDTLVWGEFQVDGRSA
Protocol: as §1

[9] = test system: T9, Rep nickase domain of tomato yellow leaf curl virus
T9 sequence (residues 1-136 of Rep, tag left off): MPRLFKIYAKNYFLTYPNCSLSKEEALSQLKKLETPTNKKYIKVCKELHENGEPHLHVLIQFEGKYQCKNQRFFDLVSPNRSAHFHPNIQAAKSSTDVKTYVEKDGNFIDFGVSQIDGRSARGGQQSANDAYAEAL
Protocol: as §1

[10] = test system: T10, Rep nickase domain of wheat dwarf virus
T10 sequence (residues 1-137 of Rep, tag left off): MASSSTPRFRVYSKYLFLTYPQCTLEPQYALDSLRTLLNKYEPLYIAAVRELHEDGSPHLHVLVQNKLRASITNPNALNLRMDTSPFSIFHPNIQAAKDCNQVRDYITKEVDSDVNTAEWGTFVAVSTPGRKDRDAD
Protocol: as §1

Row | Sequence | uncleaved DNA left (log2) [1] | uncleaved DNA left (log2) [2] | uncleaved DNA left (log2) [3] | uncleaved DNA left (log2) [4] | uncleaved DNA left (log2) [5] | uncleaved DNA left (log2) [6] | uncleaved DNA left (log2) [7] | uncleaved DNA left (log2) [8] | uncleaved DNA left (log2) [9] | uncleaved DNA left (log2) [10]
1 | AAAAAGT | 0.0692 | -0.009 | -0.786 | -2.08 | 0.0316 | -1.17 | -0.514 | 0.0747 | 0.0535 | -0.216
2 | TCCTAAG | 0.0377 | 0.126 | -0.632 | -0.557 | 0.0908 | -1.16 | 0.174 | -0.0841 | 0.105 | 0.0529
3 | TCCCTAC | 0.0617 | 0.0183 | 0.0676 | -1.79 | 0.0634 | -0.415 | -0.16 | 0.0566 | -0.0321 | 0.0321
4 | TCACGTA | 0.0325 | -0.0284 | 0.131 | -0.742 | 0.0734 | -0.721 | 0.0321 | 0.0966 | 0.0255 | -0.0234
5 | GCCGAAG | 0.106 | -0.0298 | -0.211 | -0.19 | 0.114 | -0.8 | 0.183 | 0.0799 | -0.0276 | -0.15
6 | GCGTCTC | 0.0993 | 0.0368 | 0.24 | 0.454 | 0.062 | 0.76 | -0.0327 | 0.0836 | 0.134 | 0.11
7 | CCGGGGA | -0.0596 | -0.0495 | 0.773 | 1.21 | -0.146 | 2.12 | -0.0267 | -0.0557 | -0.0925 | -0.0161
8 | TGAAGGT | 0.00828 | -0.0635 | 0.288 | 0.975 | -0.0275 | 1.53 | 0.0657 | 0.0198 | -0.12 | 0.0702
9 | TGTTTAA | -0.00481 | -0.0105 | 0.184 | 0.279 | -0.0681 | 0.836 | 0.073 | -0.00286 | -0.0278 | -0.114
10 | AGCTGTG | -0.0215 | 0.0419 | -0.373 | -0.169 | 0.0597 | -0.526 | 0.0859 | -0.00304 | -0.0148 | -0.036
11 | CGTAACA | 0.0143 | -0.00374 | -0.393 | -1.56 | -0.0693 | -0.416 | -0.113 | -0.181 | -0.137 | 0.000898
12 | GATATAC | 0.121 | -0.00576 | 0.264 | 0.429 | -0.0417 | 0.782 | 0.147 | 0.0677 | 0.111 | 0.0419
13 | CGGGAGC | 0.0516 | 0.0283 | 0.484 | 1.16 | -0.176 | 1.23 | 0.101 | -0.0252 | 0.0258 | 0.0872
14 | TCCAAAC | -0.0344 | -0.0662 | 0.0888 | -0.351 | -0.0361 | -0.609 | -0.101 | 0.0871 | -0.0121 | 0.0735
15 | GATGACT | 0.231 | 0.0899 | 0.427 | 0.399 | 0.0187 | 1.61 | 0.172 | 0.0769 | 0.152 | 0.241
16 | ATAAGTC | 0.107 | -0.0167 | -3.33 | -2.85 | -0.0173 | -2.25 | 0.011 | -0.898 | -0.0451 | -2.71
17 | GTAAGGC | -0.0192 | 0.00133 | -0.334 | -0.968 | -0.0551 | 0.598 | 0.164 | -0.0597 | 0.00858 | 0.00357
18 | TACGCAG | 0.0829 | -0.147 | -0.913 | -0.803 | -0.0824 | -1.19 | 0.125 | -0.0842 | -0.0713 | -0.133
19 | AAGTCCT | -0.67 | -1.49 | -0.147 | -2.57 | -0.906 | 0.0615 | -3.76 | -0.0401 | -0.0896 | -0.154
20 | TCGAACA | 0.00801 | 0.21 | 0.106 | -1.28 | 0.154 | -0.311 | -0.12 | 0.105 | 0.227 | 0.0202
21 | GTAGGAT | -0.0377 | -0.0273 | 0.171 | 1.36 | -0.0242 | 1.79 | 0.0732 | 0.037 | -0.174 | -0.0597
22 | AGGGTGA | -0.00315 | -0.0398 | 0.0814 | 0.643 | 0.0446 | 0.736 | 0.14 | 0.1 | -0.0585 | -0.0247
23 | CATGTGA | -0.0781 | -0.206 | -0.777 | -0.737 | 0.0303 | -1.15 | 0.0839 | -0.123 | -0.0157 | -0.245
24 | CTCGCTC | -0.0602 | -0.0615 | -0.138 | -0.572 | -0.169 | -0.734 | -0.179 | -0.133 | 0.0197 | 0.00624
25 | GGTCTCT | 0.0689 | 0.0312 | 0.359 | 0.595 | 0.0221 | 1.55 | 0.0732 | 0.0375 | 0.103 | -0.00833
26 | GTGGTAG | 0.186 | 0.166 | 0.306 | 0.471 | 0.191 | 0.189 | 0.186 | 0.224 | 0.16 | 0.131
27 | CTTCCAC | 0.213 | -0.0899 | -0.0383 | -0.523 | 0.0401 | -0.675 | -0.0914 | -0.0578 | 0.0276 | 0.0702
28 | TCGTACC | -0.193 | -0.0407 | -0.0492 | -0.902 | -0.139 | -0.212 | -2.6 | -0.24 | 0.0998 | -0.0828
29 | CGTTGTC | 0.135 | -0.0224 | -0.33 | -0.316 | -0.118 | -0.837 | 0.0321 | -0.127 | 0.0241 | -0.0699
30 | GTCCAAA | -0.000254 | 0.0914 | 0.285 | 1.07 | -0.0242 | 1.7 | 0.0328 | 0.122 | 0.143 | 0.279
